Data as given in article PMC4336329 (PLoS ONE, 2015).
Out of some 310,000 compounds screened, about 2,200 (0.71%) showed an effect of 50% or more. Effects have a minus sign here. Some of the results follow.

target: human ether-à-go-go-related gene (hERG) potassium channel (human, UniProt Q12809); assay: primary screen, population patch clamp on CHO cells stably expressing hERG
Sequence (Q12809 whole entry, looked up): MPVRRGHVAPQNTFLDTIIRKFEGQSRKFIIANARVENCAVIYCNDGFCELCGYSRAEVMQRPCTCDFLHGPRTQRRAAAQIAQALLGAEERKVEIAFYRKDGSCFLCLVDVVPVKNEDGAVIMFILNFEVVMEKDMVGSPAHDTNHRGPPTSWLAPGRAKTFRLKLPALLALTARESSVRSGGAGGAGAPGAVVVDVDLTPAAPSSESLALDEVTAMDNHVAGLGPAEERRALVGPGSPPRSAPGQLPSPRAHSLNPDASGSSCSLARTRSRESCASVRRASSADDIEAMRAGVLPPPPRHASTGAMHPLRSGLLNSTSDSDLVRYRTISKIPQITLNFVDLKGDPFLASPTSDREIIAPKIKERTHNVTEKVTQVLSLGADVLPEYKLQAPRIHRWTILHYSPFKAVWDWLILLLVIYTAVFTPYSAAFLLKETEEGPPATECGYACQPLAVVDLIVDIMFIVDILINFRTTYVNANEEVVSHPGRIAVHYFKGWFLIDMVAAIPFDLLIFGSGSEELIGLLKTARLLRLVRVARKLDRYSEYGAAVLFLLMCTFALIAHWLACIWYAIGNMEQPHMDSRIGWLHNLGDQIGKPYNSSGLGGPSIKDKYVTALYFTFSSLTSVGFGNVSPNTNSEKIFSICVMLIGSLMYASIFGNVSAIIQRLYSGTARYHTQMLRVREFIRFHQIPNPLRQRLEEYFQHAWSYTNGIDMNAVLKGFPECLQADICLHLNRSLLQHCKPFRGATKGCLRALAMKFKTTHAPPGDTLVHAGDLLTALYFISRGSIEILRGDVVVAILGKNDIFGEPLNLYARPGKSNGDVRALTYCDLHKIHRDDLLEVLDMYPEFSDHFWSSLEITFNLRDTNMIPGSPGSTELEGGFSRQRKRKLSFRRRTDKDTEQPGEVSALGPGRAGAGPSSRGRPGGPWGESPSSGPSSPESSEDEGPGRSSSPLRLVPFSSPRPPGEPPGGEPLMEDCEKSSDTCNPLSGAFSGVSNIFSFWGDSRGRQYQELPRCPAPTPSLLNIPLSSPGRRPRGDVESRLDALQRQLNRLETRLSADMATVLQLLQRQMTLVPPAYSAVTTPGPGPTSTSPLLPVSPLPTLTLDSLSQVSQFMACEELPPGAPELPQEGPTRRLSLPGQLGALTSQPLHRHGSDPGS

SMILES | hERG current change (%, negative = inhibition) at 1uM [%]
Cc1cnc(NC(=O)CC(C)c2ccccc2)s1 (centres unmarked) | 9.29
Cc1ccc(NC(=S)NNC(=O)Nc2ccccc2)cc1 | 23.6
COc1ccc(CCNC(=O)c2cc3c(=O)n4ccccc4nc3n(CCCN3CCOCC3)c2=N)cc1 | -88.9
COc1cc(C)c(NC(=S)Nc2cccc(Cl)c2)cc1OC | 16.8
COc1ccc(C)cc1NC(=O)C(Sc1nnc(-c2ccncc2)n1-c1ccc(Cl)cc1)c1ccccc1 (centres unmarked) | 18.1
CN(C)S(=O)(=O)N1CCN(CC(O)COc2ccc3cc(Br)ccc3c2)CC1 (centres unmarked) | 4.82
CC(C)Cc1cc(CNC(=O)C2CCC(=O)N(CCc3cccc(F)c3)C2)on1 (centres unmarked) | -8.46
COc1ccc(S(=O)(=O)N2CCCC(C(=O)Nc3ccc(NC(=O)c4ccccn4)cc3)C2)cc1 (centres unmarked) | 8.55
COc1cc(OC)cc(C(=O)NCCNc2nc3cc(C)cc(C)c3cc2C#N)c1 | 10.3
COc1cccc(NC(=O)C(OC(=O)c2ccccc2NS(=O)(=O)c2cccs2)c2ccccc2)c1 (centres unmarked) | 10.6
COc1ccc(OCC(=O)Nc2ccc(C(=O)Nc3ccccc3C(=O)O)cc2)cc1 | 24.6
COc1ccc(NC(=O)CCCC(=O)NCCc2ccc(OC)c(OC)c2)cc1 | 10.2
CC(=O)Cc1nsc(Nc2cccc(C)c2)n1 | 7.99
O=C(Nc1cccc2ccccc12)c1nn(C23CC4CC(CC(C4)C2)C3)cc1[N+](=O)[O-] | -1.52
N#Cc1ccc(OCC(=O)NCC2COc3ccccc3O2)cc1 (centres unmarked) | -5.38
O=S(=O)([O-])Oc1c[nH]c2ccccc12.[K+] | 18.9
CCOC(=O)N1CCC(NC(=O)CS(=O)Cc2nc(-c3ccc(OC)c(OC)c3)oc2C)CC1 (centres unmarked) | 15.6
CCc1nnc(NC(=O)CSc2nnc(Cc3cccn3C)n2C)s1 | 12.8
Cc1ccc(F)c(NC(=O)CCOc2ccccc2C)c1 | 9.97
CCOC(=O)c1nn(-c2ccccc2Cl)c(=O)cc1OCC(=O)Nc1cccc(OC)c1 | 17.7
CCCCn1c(SCC(=O)Nc2cc(C)on2)nc2ccsc2c1=O | 8.47
COCCn1c(SCC(=O)NC(=O)NCc2ccccc2)nc2ccccc2c1=O | 9.92

SMILES | hERG current change (%, negative = inhibition) at 1uM [%]
CC1CCCCN1S(=O)(=O)c1cccc2nonc12 (centres unmarked) | 3.29
COc1ccc(C(C(=O)NC2CCCC2)N(CC2CCCO2)C(=O)Cc2cccs2)cc1OC (centres unmarked) | -0.762
Cc1ccc(S(=O)(=O)Nc2ncnc3sc(C)c(C)c23)cc1 | -0.125
CCN(CC)CCNC(=O)c1ccc(NC2=NC3CS(=O)(=O)CC3S2)cc1 (centres unmarked) | 12.1
CC(C)CCNC(=O)C1CC(c2cccc([N+](=O)[O-])c2)=NO1 (centres unmarked) | -5.13
Cc1ccc(S(=O)(=O)N2CCOCC2)cc1C(=O)OCC(=O)NCc1ccccc1 | 5.03
Cc1onc(-c2ccccc2)c1C(=O)Nc1ccc(S(=O)(=O)N2CCCC2)cc1 | 5.41
COc1cc(NC(=S)N2CCN(S(=O)(=O)c3ccccc3)CC2)cc(OC)c1 | 13.3
CSc1ccccc1C(=O)NC(C)c1ccc(-n2ccnc2)cc1 (centres unmarked) | -0.703
Cc1cc(C)c(C)c(S(=O)(=O)NCCCn2ccnc2)c1C | 12.9
COc1ccc(C(=O)Nc2ccc(S(=O)(=O)N3CCCCC3C)cc2)c(OC)c1OC (centres unmarked) | 3.37
Cc1ccc(CN2C(=O)N/C(=C\c3ccc(N4CCOCC4)cc3)C2=O)cc1 | 1.93
CCCCCCNc1cc(C)oc(=O)c1C(C)=O | -5.57
O=C(Nc1ccc(C(=O)NC2CCCCC2)cc1)c1cccnc1 | 1.66
Cn1c(=O)c(C(=O)COC(=O)c2cc(C(F)(F)F)nc3ccccc23)c(N)n(Cc2ccccc2)c1=O | 5.2
O=C(COC(=O)Cc1ccccc1)Nc1ccc(SC(F)F)cc1 | 6.9
COc1ccc(C2Nc3ccccc3C(=O)N2Cc2ccco2)cc1CN1C(=O)c2ccccc2C1=O (centres unmarked) | 5.82
Cc1ccc2oc(C(=O)NCCCN3CCOCC3)c(C)c2c1 | -6.11
COc1ccc(CN(C)C(=O)c2cnc(OC)cc2C(F)(F)F)c(OC)c1 | -2.66
COc1ccc(CC(=O)NCc2ccc3c(c2)cc(C)n3C)cc1OC | 7.58
CCCCOc1ccc(C(=O)Nc2ccc3c(c2)C(=O)NC3=O)cc1 | -4.89
Cc1cccnc1NC(=O)Nc1cccc2ccccc12 | 0.589

SMILES | hERG current change (%, negative = inhibition) at 1uM [%]
O=C(Nc1ccccc1C(=O)N/N=C/c1ccc(F)cc1)c1ccccc1Br | -14.1
C#Cc1ccc([C@@H]2C=C(C(=O)OCC=C)O[C@H](OCCCCO)C2)cc1 | 12.2
O=C(Nc1cnn(Cc2ccc(F)cc2)c1)c1cnn2c(C(F)F)cc(-c3ccccc3)nc12 | 9.51
CC1S/C(=N/N=C/c2cccc([N+](=O)[O-])c2)NC1=O (centres unmarked) | 6.01
Cc1ccc(Cn2c(C)nc3c(c2=O)c2nc4ccccc4nc2n3Cc2ccco2)cc1 | 16
O=P(C1=C(N2CCOCC2)/C(=C\c2ccccc2)CC1)(N1CCOCC1)N1CCOCC1 | 4.46
CC(C)(C)c1csc(NC(=O)Nc2ccccc2)n1 | 8.1
CCOc1cc(C(=O)OCc2cccc(OC)c2OC)ccc1OCC(=O)N1CCOCC1 | 10.3
Cc1ccc2nc(NC(=S)NC(=O)c3ccco3)sc2c1 | 8.59
O=C(O)C1CN(C(=O)c2cccc(Br)c2)C1 | 19.9
Cc1ccc(OCC(=O)N(c2ccccn2)C2CCCCC2)c(C)c1 | 5.47
COc1ccc(S(=O)(=O)N(C)c2ccc(C(=O)N3CCOCC3)cc2)cc1OC | 8.49
O=C(CN1CCN(Cc2ccc(Cl)cc2)CC1)N/N=C/c1ccccc1F | -14.3
Cc1cccc2sc(NC(=O)CCNS(=O)(=O)c3cccs3)nc12 | 3.11
CCOc1cc(/C=C2\N=C(C)OC2=O)cc(Cl)c1OCC(=O)OC | 10
CC(C)NC(=O)CSc1nccc(-c2cccs2)n1 | 8.37
Cc1cccc(OCC(=O)N(C)c2c(N)n(Cc3ccccc3)c(=O)[nH]c2=O)c1C | 12.7
CCOc1ccc(C(C)NC(=O)c2ccccc2OCc2c(C)noc2C)cc1OCC (centres unmarked) | 1.17
CCOc1ccc(NC2=NC(C(=O)NCc3ccccc3)CC(=O)N2)cc1 (centres unmarked) | 7.04
Cc1ccc(C)c(N2CCN(S(=O)(=O)c3cc4c(cc3Cl)NC(=O)CO4)CC2)c1 | 12
COc1ccc(-c2cnnn2-c2ccc(NC(=O)c3ccc(S(=O)(=O)N4CCCCC4)cc3)cc2)cc1 | 6.57
COc1ccc(C(C)=O)cc1CN1CCCCC1.Cl | 11.2

SMILES | hERG current change (%, negative = inhibition) at 1uM [%]
Cc1[nH]c2ccccc2c1NC(=O)CN1CCN(c2cccc(C(F)(F)F)c2)CC1 | 2.73
CC(C)(C)NC(=O)N1CCCN(c2ccc(C(F)(F)F)cn2)CC1 | -0.78
CCOC(=O)c1ccccc1NC(=O)c1ccc(F)cc1 | 13.6
CCc1nnc(NC(=O)CSc2nc(-c3ccc(OC)cc3)ns2)s1 | 12.5
Cc1[nH]c2ccccc2c1C(=O)CN1C(=O)C(=O)N(Cc2ccco2)C1=O | -4.44
Cc1ccc2occ(/C=N/O)c(=O)c2c1 | 11.4
CCc1ccc(NC(=O)NC2CCCCCCC2)cc1 | 17.6
COc1cccc(Cn2c(Oc3cccc(C)c3)nc3c2c(=O)n(C)c(=O)n3C)c1 | 4.42
O=C(N/N=C/c1cccnc1)c1cc(-c2ccccc2Cl)nc2ccccc12 | 5.08
CCCCC[C@H](O)/C=C/[C@@H]1[C@@H](C/C=C\CCCC(=O)O)[C@@H](O)C[C@H]1O.NC(CO)(CO)CO | 14.9
O=C(N/N=C/c1ccco1)c1cc(-c2ccc(Cl)s2)[nH]n1 | 16.2
O=S(=O)(c1cc(F)ccc1F)N1CCN2CCCC2C1 (centres unmarked) | 17.7
O=C(Nc1nc(-c2ccccn2)cs1)c1ccc([N+](=O)[O-])o1 | 8.67
CC(C)(C)OC(=O)NN1CC(=O)N2[C@@H](Cc3c([nH]c4ccccc34)C2(C)C)C1=O | 24.1
Cc1c(Br)cc(-c2nnco2)cc1Br | 19
COc1ccc(-n2ncc3c(=O)n(CC(=O)NC(C)C)cnc32)cc1 | 7.75
CC1(C)CC(=O)C(N=Nc2cccc(F)c2C#N)=C(O)C1 | 15
C/C(CC(=O)Nc1ccc(Cl)cc1C(F)(F)F)=N\NC(=O)c1ccccn1 | 13.4
C/C(=N\NS(=O)(=O)c1ccc(C)cc1)c1ccc(C)o1 | 9.31
O=C(CSc1nnc(Cc2ccccc2)o1)N1CCCC1 | 7.19
